# According to PubChem BioAssay (Tox21):
# This list was built around the results that the source calls inconclusive (neither active nor inactive); the mix of calls is not that of the screen. For some assays here: Potencies of inconclusive entries are left out as doubtful fits. The source made the active and inactive calls. Unless noted, the call rests on the fitted dose curve.
# Legend:
# [1] = molecular target: Peroxisome proliferator-activated receptor gamma (Homo sapiens) (UniProt P37231); assay: qHTS assay to identify small molecule antagonists of the peroxisome proliferator-activated receptor gamma (PPARg) signaling pathway (AID 743191); conditions: HEK293H PPARg-UAS-bla, beta-lactamase ratio, antagonist, 17 h; ratio activity, negative = inhibition: at 62.6 µM (top of the series) unless noted; further: nearly all actives have a fitted effect of over 30% in size; further: potency means the concentration at half of the fitted maximal effect
# How it was run: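 GeneBLAzer PPARg UAS-bla HEK293H cells, 5 h post-plating, exposed to compounds 17 h at 37C. LiveBLAzer B/G FRET substrate added for 1 h at room temperature; beta-lactamase reporter read by fluorescence intensity.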
# [2] = qHTS assay for small molecule agonists of the antioxidant response element (ARE) signaling pathway (AID 743202; active means well fitted activation curve with a large enough effect in the signal ratio in the repeat runs, not every such curve was filed as active; inconclusive means weak or mixed curves, or effect the other way; inactive means no such curve, though single readings can be large or run the other way; the % refers to the signal ratio; further: potency means the concentration at half of the fitted maximal effect; on activation: on the % scale 0 is the no-effect control and ±100 the full control effect); conditions: HepG2 ARE-bla reporter, beta-lactamase FRET, 16 h; activation: at 73.3 µM (top of the series) unless noted
# How it was run: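 HepG2 ARE-bla cells; 16 h treatment at 37 C; FRET-based beta-lactamase fluorescence read after 2 h substrate incubation at room temperature.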
# [3] = qHTS assay for small molecule activators of the heat shock response signaling pathway (AID 743210; active means well fitted activation curve with a large enough effect in the signal ratio in the repeat runs, with a control signal flat, not every such curve was filed as active; inconclusive means weak or mixed curves; the % refers to the signal ratio; further: potency means the concentration at half of the fitted maximal effect;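 on activation: HeLa cells with beta-lactamase reporter driven by heat shock elements; on the % scale 0 is the no-effect control and ±100 the full control effect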); conditions: HeLa HSE-bla reporter, beta-lactamase ratio, 5 h; activation: at 62.6 µM (top of the series)
# How it was run: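 Following overnight attachment, HSE-bla HeLa cells received test compounds for 5 h at 37 C; beta-lactamase activity was then detected via FRET substrate fluorescence.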
# [4] = molecular target: Peroxisome proliferator-activated receptor delta (Homo sapiens) (UniProt Q03181); assay: qHTS assay to identify small molecule antagonists of the peroxisome proliferator-activated receptor delta (PPARd) signaling pathway (AID 743215; active means well fitted inhibition curve with a large enough effect in the signal ratio in the repeat runs, not every such curve was filed as active; inconclusive means weak or mixed curves, or effect the other way; inactive means no such curve, though single readings can be large or run the other way; the % refers to the signal ratio;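 further: cells stimulated with agonist L165041 at 300 nM final during compound exposure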; further: potency means the concentration at half of the fitted maximal effect; on ratio activity, negative = inhibition: on the % scale 0 is the no-effect control and ±100 the full control effect); conditions: HEK293H PPARd-UAS-bla, beta-lactamase FRET ratio, antagonist, 17 h; ratio activity, negative = inhibition: at 62 µM (top of the series) unless noted
# How it was run: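 Cells: HEK293H with a UAS-driven beta-lactamase reporter responsive to PPARd. Compounds were co-added with L165041 (300 nM, final) and incubated 17 h at 37 C before a 2 h room-temperature FRET substrate step and fluorescence reading.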
# [5] = qHTS assay to identify small molecule agonists of the peroxisome proliferator-activated receptor delta (PPARd) signaling pathway - cell viability counter screen (AID 743211; active means well fitted curve in the direction sought with a large enough effect in the repeat runs; inconclusive means weak or mixed curves; inactive means no such curve, though single readings can be large; an effect the other way counts as inactive or inconclusive; further: potency means the concentration at half of the fitted maximal effect; nearly all actives have a fitted effect of over 55% in size); conditions: PPARd-bla HEK293H viability, CellTiter-Glo luminescence, 17 h; activity change, negative = cytotoxicity: at 62.6 µM (top of the series)
# How it was run: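 PPARd-bla HEK293H cells (3000/well) were pre-incubated 5 h at 37 C, then exposed to compound for 17 h at 37 C. After 2 h with LiveBLAzer substrate, CellTiter-Glo was added to the same wells; luminescence read after 30 min at room temperature.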
# [6] = molecular target: Peroxisome proliferator-activated receptor delta (Homo sapiens) (UniProt Q03181); assay: qHTS assay to identify small molecule agonists of the peroxisome proliferator-activated receptor delta (PPARd) signaling pathway (AID 743212); conditions: HEK293H PPARd-UAS-bla, beta-lactamase FRET ratio, 17 h; activation: at 62.6 µM (top of the series) unless noted; further: on the % scale 0 is the no-effect control and ±100 the full control effect
# How it was run: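 Tox21 library screened in GeneBLAzer PPARd UAS-bla HEK293H cells. After compound treatment at 37 C, a FRET-based beta-lactamase substrate was applied for 2 h and fluorescence recorded.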
# [7] = molecular target: Vitamin D3 receptor (Homo sapiens) (UniProt P11473); assay: qHTS assay to identify small molecule antagonists of the vitamin D receptor (VDR) signaling pathway (AID 743223; active means well fitted inhibition curve with a large enough effect in the signal ratio in the repeat runs, not every such curve was filed as active; inconclusive means weak or mixed curves, or effect the other way; inactive means no such curve, though single readings can be large or run the other way; the % refers to the signal ratio; further: potency means the concentration at half of the fitted maximal effect); conditions: VDR-UAS-bla HEK293T, beta-lactamase FRET ratio, 16 h; activity change, negative = inhibition: at 61 µM (top of the series) unless noted
# How it was run: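 VDR-bla cells were treated with compound plus 3 nM final 1alpha,25-dihydroxyvitamin D3 for 16 h at 37C. Beta-lactamase reporter read by B/G FRET substrate fluorescence after 2 h at room temperature. qHTS format.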
# [8] = qHTS assay to identify small molecule antagonists of the peroxisome proliferator-activated receptor delta (PPARd) signaling pathway - cell viability counter screen (AID 743213; active means well fitted curve in the direction sought with a large enough effect in the repeat runs; inconclusive means weak or mixed curves; inactive means no such curve, though single readings can be large; an effect the other way counts as inactive or inconclusive; further: on the % scale 0 is the no-effect control and ±100 the full control effect; nearly all actives have a fitted effect of over 50% in size); conditions: PPARd-bla HEK293H viability, CellTiter-Glo luminescence, 17 h; viability change, negative = cytotoxic: at 62 µM (top of the series) unless noted
# How it was run: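 Cytotoxicity counter screen: CellTiter-Glo luminescence read 30 min after addition, in the same wells as the reporter assay. There, PPARd UAS-bla HEK293H cells (3000/well) were treated 17 h at 37 C with compound and 300 nM L165041.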
# [9] = qHTS assay for small molecule activators of the heat shock response signaling pathway - cell viability counter screen (AID 743209; active means well fitted curve in the direction sought with a large enough effect in the repeat runs; inconclusive means weak or mixed curves; inactive means no such curve, though single readings can be large; an effect the other way counts as inactive or inconclusive; further: potency means the concentration at half of the fitted maximal effect; nearly all actives have a fitted effect of over 50% in size); conditions: HSE-bla HeLa viability, CellTiter-Glo luminescence, 5 h; activity change, negative = cytotoxicity: at 62.6 µM (top of the series)
# How it was run: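 Cytotoxicity counter screen run in parallel with the HSE beta-lactamase reporter, using the same wells. HeLa HSE-bla cells received compound for 5 h at 37 C; ATP-based CellTiter-Glo luminescence was measured after 30 min at room temperature.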
# [10] = molecular target: Vitamin D3 receptor (Homo sapiens) (UniProt P11473); assay: qHTS assay to identify small molecule agonists of the vitamin D receptor (VDR) signaling pathway (AID 743222); conditions: HEK293T VDR-UAS-bla, beta-lactamase FRET ratio, 16 h; activation: at 63.5 µM (top of the series) unless noted; further: potency means the concentration at half of the fitted maximal effect
# How it was run: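 Cells carrying a VDR-driven beta-lactamase reporter are seeded at 2,000 per well and rested 4 h. Compounds in DMSO are added for 16 h at 37C, and FRET substrate fluorescence is measured after 2 h at room temperature.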
# Tags describe the fitted curve by direction and shape or compound fluorescence and quenching.
# Sequence of UniProt Q03181 (Q03181 whole entry, looked up): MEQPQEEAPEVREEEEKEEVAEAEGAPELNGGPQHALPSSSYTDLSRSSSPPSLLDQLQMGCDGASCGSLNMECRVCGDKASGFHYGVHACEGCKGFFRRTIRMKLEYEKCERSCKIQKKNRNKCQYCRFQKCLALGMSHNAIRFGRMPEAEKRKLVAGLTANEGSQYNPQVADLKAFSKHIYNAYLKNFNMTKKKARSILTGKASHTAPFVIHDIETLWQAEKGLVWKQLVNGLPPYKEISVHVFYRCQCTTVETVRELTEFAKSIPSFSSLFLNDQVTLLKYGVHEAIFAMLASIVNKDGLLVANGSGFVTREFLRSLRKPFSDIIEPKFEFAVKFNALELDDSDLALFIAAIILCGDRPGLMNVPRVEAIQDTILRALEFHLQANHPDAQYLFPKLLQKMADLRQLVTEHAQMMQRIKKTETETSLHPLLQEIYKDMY
# Sequence of UniProt P11473 (P11473 whole entry, looked up): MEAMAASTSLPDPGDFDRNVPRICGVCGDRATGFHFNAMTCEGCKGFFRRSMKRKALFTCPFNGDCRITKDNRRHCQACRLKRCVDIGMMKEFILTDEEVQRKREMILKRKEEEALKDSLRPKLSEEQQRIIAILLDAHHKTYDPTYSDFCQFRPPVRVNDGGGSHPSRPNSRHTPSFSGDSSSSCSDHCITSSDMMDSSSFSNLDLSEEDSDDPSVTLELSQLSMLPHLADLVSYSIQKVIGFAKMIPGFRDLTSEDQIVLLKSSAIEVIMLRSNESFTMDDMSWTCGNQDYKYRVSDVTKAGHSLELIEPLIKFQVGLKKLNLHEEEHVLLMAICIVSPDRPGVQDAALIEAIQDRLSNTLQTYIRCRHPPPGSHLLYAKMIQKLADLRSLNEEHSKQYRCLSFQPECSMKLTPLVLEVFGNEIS
# Sequence of UniProt P37231 (P37231 whole entry, looked up): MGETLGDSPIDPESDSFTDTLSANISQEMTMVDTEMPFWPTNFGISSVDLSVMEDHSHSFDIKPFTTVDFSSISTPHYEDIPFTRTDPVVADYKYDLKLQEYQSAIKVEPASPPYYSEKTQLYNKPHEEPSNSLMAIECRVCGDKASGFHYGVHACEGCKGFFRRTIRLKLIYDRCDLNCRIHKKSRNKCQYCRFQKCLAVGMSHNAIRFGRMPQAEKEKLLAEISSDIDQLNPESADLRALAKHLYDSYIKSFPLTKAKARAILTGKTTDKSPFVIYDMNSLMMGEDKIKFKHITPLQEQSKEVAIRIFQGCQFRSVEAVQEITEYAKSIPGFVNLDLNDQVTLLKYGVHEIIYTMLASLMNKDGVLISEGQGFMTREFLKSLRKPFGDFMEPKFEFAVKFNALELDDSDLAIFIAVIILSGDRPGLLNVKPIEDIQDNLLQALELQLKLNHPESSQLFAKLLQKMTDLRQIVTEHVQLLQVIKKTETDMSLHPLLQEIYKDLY
smiles,measurement,setting,value
CN1Cc2cc(C(=O)N3CCC(C4CCNCC4)CC3)ccc2NC(CC(=O)O)C1=O (stereo not given),Potency,[1],"inconclusive [activator, partial curve, poor fit]"
same,Potency,[2],inactive
same,Potency,[3],inactive
same,Potency,[4],inactive
Oc1cccc(O)c1,"ratio activity, negative = inhibition",[1],inconclusive: 2.66%
same,Potency,[2],"inconclusive [rising, partial curve, poor fit]"
same,Potency,[5],"inconclusive [rising, partial curve, poor fit]"
same,activation,[6],inconclusive: 11.2%
same,"activity change, negative = inhibition",[7],inconclusive: 3.46%
C[C@H](CN1CCCC1)C(=O)c1ccc(C(F)(F)F)cc1,"ratio activity, negative = inhibition",[1],inconclusive: 4.43%
same,Potency,[2],inconclusive
same,Potency,[5],"inconclusive [cytotoxic, partial curve, poor fit]"
same,"viability change, negative = cytotoxic",[8],inconclusive: -31.3% [cytotoxic]
same,Potency,[7],"inconclusive [activator, partial curve, poor fit]"
O=C1OC(OC(=O)c2cccnc2Nc2cccc(C(F)(F)F)c2)c2ccccc21 (stereo not given),Potency,[1],active: 11.9 µM
same,Potency,[2],"inconclusive [rising, full curve, poor fit]"
same,Potency,[3],"inconclusive [activator, partial curve, poor fit]"
same,activation,[6],inconclusive: 6.53%
same,Potency,[4],"inconclusive [fluorescent, partial curve, poor fit]"
same,"activity change, negative = inhibition",[7],inconclusive: 1.04%
N[C@@H](CSSC[C@H](N)C(=O)O)C(=O)O,"ratio activity, negative = inhibition",[1],inactive: 3.31% [at 0.55 µM]
same,activation,[2],inactive: 9.27% [at 0.756 µM]
same,Potency,[9],"inconclusive [cytotoxic, partial curve, poor fit]"
same,Potency,[3],inconclusive
same,Potency,[5],"inconclusive [cytotoxic, single point]"
same,Potency,[4],"inconclusive [inhibitor, single point]"
CCN1CCc2nc(N)oc2CC1,Potency,[1],inactive
same,Potency,[2],inactive
same,Potency,[9],"inconclusive [cytotoxic, full curve, poor fit]"
O=C(O)CCN(C1(C(=O)NO)CCCC1)S(=O)(=O)c1ccc(Oc2ccc(F)cc2)cc1,Potency,[1],inactive
same,Potency,[2],"inconclusive [falling, partial curve]"
same,Potency,[3],inactive
same,activation,[6],inconclusive: -8.26%
same,"ratio activity, negative = inhibition",[4],inconclusive: -36.8% [inhibitor]
same,Potency,[10],"inconclusive [inhibitor, partial curve]"
